Variants at the floor of the assay are shown more often than the library holds them.
B1: TPR 5TU (parent)
chain: GGAUCUUCUCGAUCUAACAAAAAAGACAAAUCUGCCACAAAGCUUGAGAGCAUCUUCGGAUGCAGAGGCGGCAGCCUUCGGUGGCGCGAUAGCGCCAACGUUCUCAACUAUGACACGCAAAACGCGUGCUCCGUUGAAUGGAGUUUAUCAUG

Variants of: B1
Test: polymerase ribozyme fitness, log enrichment relative to wild type (log ratio); higher = more active; in vitro selection for triplet polymerase activity
Procedure, shortened: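 Each subunit of a heterodimeric triplet polymerase ribozyme was mutagenized into a library by PCR, transcribed, and subjected to one round of in vitro selection, run in triplicate. Libraries were annealed with a biotinylated primer, the partner subunit and triplets, incubated frozen at −7 °C, and extended constructs were gel-excised, captured on streptavidin beads and recovered by RT-PCR. Input and output libraries were sequenced on Illumina, keeping genotypes with ≥10 input reads and ≥1 read per output. Fitness is log base 2 of genotype enrichment divided by wild-type enrichment, from inverse-variance-weighted replicate averages.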

Row | Variant | polymerase ribozyme fitness (log ratio)
1 | C72A G83A C87G A89U A115C U134A | ≤ -4.2
2 | C76G U148A | ≤ -4.2
3 | U78C G92C C105U A106G C114U U148G | ≤ -4.2
4 | G80C G86U G94C A137C | ≤ -4.2
5 | C75G C85G A147U | ≤ -4.2
6 | C79U A91U C96U A98U A106G | ≤ -4.2
7 | A73G C96U A119U | -0.341
8 | C79G A142C | ≤ -4.2
9 | C79G C125U A142C U148C U151G | ≤ -4.2
10 | C79A A137C | ≤ -4.2
11 | A73U U90G G117U G133U | ≤ -4.2
12 | C76G U146A | ≤ -4.2
13 | C79U G84A C108A C114A C118A U139G | ≤ -4.2
14 | G71U C76A G83C A91G G124U | ≤ -4.2
15 | C75U C87A G88A C118G A147U | ≤ -4.2
16 | C75A G141A | ≤ -4.2
17 | C75A C95G C96U | ≤ -4.2
18 | C76U C85G C87G C108U A113G G126C A137C | ≤ -4.2
19 | G81A C87U G100U A115U C116U | -4.04
20 | C76G U130G G141C | ≤ -4.2
21 | C76A C93A | -3.88
22 | C72A C85A U90C A106C G152U | ≤ -4.2
23 | G74A U77A | ≤ -4.2
24 | C76U G83A A89U A97U U102G | ≤ -4.2

Row | Variant | polymerase ribozyme fitness (log ratio)
25 | A73U C123U | -0.392
26 | C75G G81U G84C A137U U146C | ≤ -4.2
27 | C79U G84U C149A | ≤ -4.2
28 | A73U G83A | -1.97
29 | C76U G84U G143A | -2.57
30 | G81A C85A | 0.102
31 | A73C G92A G94U | ≤ -4.2
32 | C76U C87U G140U U146C | -3.72
33 | C75U U139A G140C | -4.11
34 | C76U A91U G92A | -4.02
35 | G71U G88U A142G | ≤ -4.2
36 | C76A C118A | -0.944
37 | G80A G84U U90G A106U G152U | ≤ -4.2
38 | G80A A91C G94A | -4.16
39 | C72G C85A U144C | ≤ -4.2
40 | C75G C87G | ≤ -4.2
41 | U78A U144C U146C | ≤ -4.2
42 | A73U C85G C118G G136C | ≤ -4.2
43 | C75A C85G U135C G141U | ≤ -4.2
44 | A73U C87A C95A U130A C131U U139G | ≤ -4.2
45 | C72A A73G A89U C114A U151G | ≤ -4.2
46 | U77G G80A C96G G117A | ≤ -4.2
47 | C76A G83A | -2.85
48 | G74C G92A A98C U104G G141A | ≤ -4.2

Row | Variant | polymerase ribozyme fitness (log ratio)
49 | C79A U82C U145G | ≤ -4.2
50 | U78C C93U U145A C149G | ≤ -4.2
51 | G80A A89G G117U | -1.48
52 | C76G C96U | ≤ -4.2
53 | C76A C87U G92C A142G | ≤ -4.2
54 | G81A C105U | 1.52
55 | A73G C85G C87G U135C U148C C149A | ≤ -4.2
56 | C79G C103G | ≤ -4.2
57 | C75G C76A G92A C103U | ≤ -4.2
58 | A73G G83A | -1.72
59 | C75U C87A U104A A113U | ≤ -4.2
60 | A73G G94U G143U U144G | ≤ -4.2
61 | C75G C93G | ≤ -4.2
62 | C75G C93U | -3.74
63 | G80C G152U | ≤ -4.2
64 | C79U C87U A113G | -4.11
65 | C75U A91C A119G G136U | ≤ -4.2
66 | C76U C93G C132U | -3.96
67 | C72A U77A G88C C93G U111G A137U U139G | ≤ -4.2
68 | G81A G86A | -1.56
69 | C79G A91G G141C | ≤ -4.2
70 | U78G U82G U148A | ≤ -4.2
71 | A73G C85U U139A U146C C149G | ≤ -4.2
72 | C75A G81U U82C C95G C118A | ≤ -4.2

Row | Variant | polymerase ribozyme fitness (log ratio)
73 | U77G C87U C108A | ≤ -4.2
74 | G74A C76A G86U A137G | ≤ -4.2
75 | C75U C79A | ≤ -4.2
76 | C76A C108G | ≤ -4.2
77 | U77A G94A A107G A121U G143C | ≤ -4.2
78 | U78G A89U A106G C118U | ≤ -4.2
79 | C79G A91G A113U | ≤ -4.2
80 | U77A A138C U144G | ≤ -4.2
81 | U77C G94C | -3.48
82 | G74A C75G A91U A119G G133A G140C G143C | ≤ -4.2
83 | G71U C76A G86A A91U | ≤ -4.2
84 | C76U U82A G88C U101G G112U A147G | ≤ -4.2
85 | C72U G86A C95A A97G A98U U104A A122U | ≤ -4.2
86 | C76A U82G C105A C108G | ≤ -4.2
87 | G81C C87A A107G C108U A110C | ≤ -4.2
88 | A73G G86A | -2.14
89 | G80A G141A | -0.333
90 | C76G U146C U151G | ≤ -4.2
91 | A73U C76A U77A G94C U104G A106G C108U | ≤ -4.2
92 | C76G C96G C99G G140U U148G | ≤ -4.2
93 | U77G C114G A119G U127G | ≤ -4.2
94 | G74U G140U | ≤ -4.2
95 | C76G C79G U104G C129G U144C | ≤ -4.2
96 | C76G G88A G136A U139G | ≤ -4.2

Row | Variant | polymerase ribozyme fitness (log ratio)
97 | U77G C93A G143A U146C | ≤ -4.2
98 | U78A G80U A138G G152U | ≤ -4.2
99 | U77C G81C A106C G143U | ≤ -4.2
100 | C79U C85A A89U A98U | ≤ -4.2
101 | G71C G92U | -3.46
102 | C72U U78G G92C U127C | ≤ -4.2
103 | C75G C103A | ≤ -4.2
104 | U77A G124U A138G | ≤ -4.2
105 | C75A G83A A98U | -4.16
106 | C79A G86U G88C C116U G141A | ≤ -4.2
107 | A73G U82G A89U C93A C116G C125G G133C | ≤ -4.2
108 | C76U G80A C93U U151G | ≤ -4.2
109 | U77G C87A G117U | ≤ -4.2
110 | A73G A142C | -1.76
111 | C76U G94A C99G G126C | ≤ -4.2
112 | U78G G117A | ≤ -4.2
113 | G74C G88A A91U | ≤ -4.2
114 | C75G U77A A91G A106U U134G | ≤ -4.2
115 | C79G A98U C99U G133U | ≤ -4.2
116 | G81C A107G C114G A142G | ≤ -4.2
117 | U78A C85A U135G | ≤ -4.2
118 | G80U C95G C96A | ≤ -4.2
119 | A73U G100U U104A G126C | ≤ -4.2
120 | C72A G86A C99A C149A | ≤ -4.2

Row | Variant | polymerase ribozyme fitness (log ratio)
121 | C72U C87G U104A A115G | ≤ -4.2
122 | G71U G88C A97U A138U | ≤ -4.2
123 | U77G C85U C108A A113G | ≤ -4.2
124 | U77A C85G C93U C129A | ≤ -4.2
125 | C76A C105U | -2.47
126 | G71C G86A U109G | ≤ -4.2
127 | G80C C85U C105G A121G U148A | ≤ -4.2
128 | G80A G83U G124C U139C | ≤ -4.2
129 | G71U A147C | -3.65
130 | C79U G92U | -1.44
131 | C79G G86U G94A | ≤ -4.2
132 | G71U G140U | ≤ -4.2
133 | A73G C96G C105A U139A | ≤ -4.2
134 | C72G C96U C116U | ≤ -4.2
135 | G80A C87U C108G | ≤ -4.2
136 | C79A G83A | -3.78
137 | G81A C93G | -3.86
138 | U77A C93A | ≤ -4.2
139 | G80A C87A G133C | ≤ -4.2
140 | A73U C75U C118G | ≤ -4.2
141 | C75G C129U | ≤ -4.2
142 | C79U G88A A91C | ≤ -4.2
143 | C72U U77A C79G C93U A119U | ≤ -4.2
144 | C76G G81C A91G C96A C116G G117U U130G C131U U148G | ≤ -4.2

Row | Variant | polymerase ribozyme fitness (log ratio)
145 | C79G C93U G136A | ≤ -4.2
146 | G71C G84U G100U C129A G140U | ≤ -4.2
147 | G74C C105U A107G | ≤ -4.2
148 | C72G A89C C103G | ≤ -4.2
149 | U77C G86U U90C | ≤ -4.2
150 | C79A C85U C93G | ≤ -4.2
151 | U77G U78C C85U | ≤ -4.2
152 | G81A G140C | -2.67
153 | C79A C93G C95U U127G C131U G143U | ≤ -4.2
154 | G74A A150U | -2.61
155 | U78A C131U | ≤ -4.2
156 | A73G C93A A110C U139A | ≤ -4.2
157 | C76A C85U G100C | ≤ -4.2
158 | G80C G94A C96U A107G A147C | ≤ -4.2
159 | C76G C87U U101G | ≤ -4.2
160 | U77C G81A A91G G128U G141C | ≤ -4.2
161 | U78A C95G U127C U130G U139G | ≤ -4.2
162 | G71U G80U G88U U102G A142U | ≤ -4.2
163 | U78G A91C C131G | ≤ -4.2
164 | C75U C87A A142G | ≤ -4.2
165 | C75U G84U | -2.45
166 | C76A A98U | -0.0442
167 | C76G G86C A122U G133C A142G U148G | ≤ -4.2
